Results: publication PMC6522533 (2019)
These are yes or no findings as the source states them, for the method shown. For some of these results: In cells and extracts the contact can be indirect. Some results given as binding are weak or reduced against the parent protein; the word gives no strength. One block for each substance: values may come before it.

Chains of the proteins cited; added tags and fusions are not shown.
UniProt O35253: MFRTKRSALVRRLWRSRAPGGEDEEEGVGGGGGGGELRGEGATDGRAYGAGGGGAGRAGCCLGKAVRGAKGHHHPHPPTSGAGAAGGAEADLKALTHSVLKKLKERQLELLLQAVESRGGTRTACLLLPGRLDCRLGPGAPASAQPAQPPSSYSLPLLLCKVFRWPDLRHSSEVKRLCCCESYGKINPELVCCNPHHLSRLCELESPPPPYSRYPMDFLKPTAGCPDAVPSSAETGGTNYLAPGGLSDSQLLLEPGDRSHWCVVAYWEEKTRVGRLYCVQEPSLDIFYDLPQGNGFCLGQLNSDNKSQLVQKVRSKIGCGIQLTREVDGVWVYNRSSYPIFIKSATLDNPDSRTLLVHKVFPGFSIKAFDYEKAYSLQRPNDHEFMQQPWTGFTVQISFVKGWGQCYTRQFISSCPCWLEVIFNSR

Tests used:
GST-β-catenin aa1–106 = biological target: T1, GST-β-catenin aa1–106 (Mus musculus (Mouse), UniProt Q02248); assay: pull-down; GST-β-catenin (FL or fragments, molar equivalents) on glutathione-agarose beads with Smad7 freed of GST by thrombin; NETN buffer, overnight at 4 °C; immunoblot with anti-Smad7 polyclonal antibody; both purified
T1 chain: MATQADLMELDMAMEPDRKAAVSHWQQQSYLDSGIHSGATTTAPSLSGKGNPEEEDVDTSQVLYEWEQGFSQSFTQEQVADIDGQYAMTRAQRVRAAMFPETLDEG

[1] = biological target: GST-β-catenin full length (FL) (UniProt Q02248); assay: as above
GST-β-catenin aa120–683 = biological target: T2, GST-β-catenin aa120–683 (Mus musculus (Mouse), UniProt Q02248); assay: as above
T2 chain: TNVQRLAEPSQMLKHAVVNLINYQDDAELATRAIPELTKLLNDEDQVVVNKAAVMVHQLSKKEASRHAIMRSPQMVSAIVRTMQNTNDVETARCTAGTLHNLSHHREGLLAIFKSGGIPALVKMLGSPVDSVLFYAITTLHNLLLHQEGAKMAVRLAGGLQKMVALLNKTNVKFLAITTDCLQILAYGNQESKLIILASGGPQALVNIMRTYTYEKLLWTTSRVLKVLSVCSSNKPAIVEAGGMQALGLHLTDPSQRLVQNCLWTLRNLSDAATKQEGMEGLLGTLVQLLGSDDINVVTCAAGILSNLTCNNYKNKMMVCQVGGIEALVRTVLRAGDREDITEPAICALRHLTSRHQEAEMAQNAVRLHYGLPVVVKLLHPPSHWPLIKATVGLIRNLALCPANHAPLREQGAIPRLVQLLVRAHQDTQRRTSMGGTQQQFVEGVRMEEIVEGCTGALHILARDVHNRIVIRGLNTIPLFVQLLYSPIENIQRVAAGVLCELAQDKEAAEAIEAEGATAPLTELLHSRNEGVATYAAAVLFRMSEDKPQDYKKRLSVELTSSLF

GST-β-catenin aa422–683 = biological target: T3, GST-β-catenin aa422–683 (Mus musculus (Mouse), UniProt Q02248); assay: as above
T3 chain: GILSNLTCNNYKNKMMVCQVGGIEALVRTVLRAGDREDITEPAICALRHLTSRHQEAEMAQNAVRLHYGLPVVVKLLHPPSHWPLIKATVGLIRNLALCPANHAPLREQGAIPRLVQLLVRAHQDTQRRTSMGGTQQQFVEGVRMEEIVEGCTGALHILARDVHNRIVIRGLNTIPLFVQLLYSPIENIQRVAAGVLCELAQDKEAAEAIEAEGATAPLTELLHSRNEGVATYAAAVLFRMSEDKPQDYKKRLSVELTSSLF

GST-β-catenin aa1–574 = biological target: T4, GST-β-catenin aa1–574 (Mus musculus (Mouse), UniProt Q02248); assay: as above
T4 chain: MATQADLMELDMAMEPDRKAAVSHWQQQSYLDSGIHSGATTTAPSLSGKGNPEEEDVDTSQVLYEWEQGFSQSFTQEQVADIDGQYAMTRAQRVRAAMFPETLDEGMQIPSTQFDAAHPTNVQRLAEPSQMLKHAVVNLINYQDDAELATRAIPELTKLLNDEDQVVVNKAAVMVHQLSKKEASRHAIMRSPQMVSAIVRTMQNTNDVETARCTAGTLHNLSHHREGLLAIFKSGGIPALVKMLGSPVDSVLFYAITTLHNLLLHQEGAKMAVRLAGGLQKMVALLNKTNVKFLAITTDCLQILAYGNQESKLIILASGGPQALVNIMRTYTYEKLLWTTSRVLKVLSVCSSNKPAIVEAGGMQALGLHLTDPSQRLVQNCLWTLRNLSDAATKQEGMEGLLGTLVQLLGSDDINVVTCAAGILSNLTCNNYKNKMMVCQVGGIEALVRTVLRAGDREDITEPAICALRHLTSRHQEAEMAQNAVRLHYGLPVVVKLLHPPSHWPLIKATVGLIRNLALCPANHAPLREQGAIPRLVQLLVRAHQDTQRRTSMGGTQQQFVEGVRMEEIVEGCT

GST-β-catenin aa575–683 = biological target: T5, GST-β-catenin aa575–683 (Mus musculus (Mouse), UniProt Q02248); assay: as above
T5 chain: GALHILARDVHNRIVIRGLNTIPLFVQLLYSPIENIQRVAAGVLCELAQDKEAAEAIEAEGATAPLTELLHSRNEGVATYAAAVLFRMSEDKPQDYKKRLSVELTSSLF

GST-β-catenin aa575–696 = biological target: T6, GST-β-catenin aa575–696 (Mus musculus (Mouse), UniProt Q02248); assay: as above
T6 chain: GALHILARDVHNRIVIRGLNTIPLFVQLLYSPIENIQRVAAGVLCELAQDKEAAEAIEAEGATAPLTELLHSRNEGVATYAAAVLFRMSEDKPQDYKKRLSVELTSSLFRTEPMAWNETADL

GST-Smad7 = GST-Smad7 (UniProt O35253); assay: pull-down; GST-Smad7 or GST on glutathione-agarose beads with 6xHis-β-catenin; 5 µg protein, NETN buffer (100 mM NaCl, 20 mM Tris-HCl pH 8, 0.5 mM EDTA, 0.5% NP-40), overnight at 4 °C; western blot; both purified
[2] = biological target: Smad7 (endogenous) (mouse (endogenous in tibialis anterior muscle and C2C12)) (UniProt O35253); assay: co-IP; total protein lysates (NP-40 lysis buffer) of mouse tibialis anterior muscle and C2C12 myoblasts; IP with Smad7 antibody (text: β-catenin and Smad7 antibodies), ImmunoCruz Optima Kit; western blot
Smad7-Flag = Smad7-Flag (UniProt O35253); assay: co-IP; lysates of C2C12 myoblasts transiently transfected with Smad7-Flag; IP with β-catenin or Flag antibody, IgG as control; western blot for β-catenin

binding (GST-β-catenin aa1–106): no binding
binding [1]: binds
binding (GST-β-catenin aa120–683): binds
binding (GST-β-catenin aa422–683): binds
binding (GST-β-catenin aa1–574): no binding
binding (GST-β-catenin aa575–683): binds
binding (GST-β-catenin aa575–696): binds
Substance: Smad7 (GST tag removed by thrombin) (from UniProt O35253 1-426)

binding (GST-Smad7): binds
Substance: 6xHistidine (6xHis)-β-catenin fusion protein (from UniProt Q02248 1-781)

binding [2]: binds
binding (Smad7-Flag): binds
Substance: β-catenin (endogenous) (from UniProt Q02248 1-781)
